Out of some 310,000 compounds screened, about 2,200 (0.71%) showed an effect of 50% or more. The effect is printed as a negative number. The list shows a part of the results.

This assay deals with human ether-à-go-go-related gene (hERG) potassium channel (human, UniProt Q12809). Nature of the assay: primary screen, population patch clamp on CHO cells stably expressing hERG.
Chain of human ether-à-go-go-related gene (hERG) potassium channel (Q12809 whole entry, looked up): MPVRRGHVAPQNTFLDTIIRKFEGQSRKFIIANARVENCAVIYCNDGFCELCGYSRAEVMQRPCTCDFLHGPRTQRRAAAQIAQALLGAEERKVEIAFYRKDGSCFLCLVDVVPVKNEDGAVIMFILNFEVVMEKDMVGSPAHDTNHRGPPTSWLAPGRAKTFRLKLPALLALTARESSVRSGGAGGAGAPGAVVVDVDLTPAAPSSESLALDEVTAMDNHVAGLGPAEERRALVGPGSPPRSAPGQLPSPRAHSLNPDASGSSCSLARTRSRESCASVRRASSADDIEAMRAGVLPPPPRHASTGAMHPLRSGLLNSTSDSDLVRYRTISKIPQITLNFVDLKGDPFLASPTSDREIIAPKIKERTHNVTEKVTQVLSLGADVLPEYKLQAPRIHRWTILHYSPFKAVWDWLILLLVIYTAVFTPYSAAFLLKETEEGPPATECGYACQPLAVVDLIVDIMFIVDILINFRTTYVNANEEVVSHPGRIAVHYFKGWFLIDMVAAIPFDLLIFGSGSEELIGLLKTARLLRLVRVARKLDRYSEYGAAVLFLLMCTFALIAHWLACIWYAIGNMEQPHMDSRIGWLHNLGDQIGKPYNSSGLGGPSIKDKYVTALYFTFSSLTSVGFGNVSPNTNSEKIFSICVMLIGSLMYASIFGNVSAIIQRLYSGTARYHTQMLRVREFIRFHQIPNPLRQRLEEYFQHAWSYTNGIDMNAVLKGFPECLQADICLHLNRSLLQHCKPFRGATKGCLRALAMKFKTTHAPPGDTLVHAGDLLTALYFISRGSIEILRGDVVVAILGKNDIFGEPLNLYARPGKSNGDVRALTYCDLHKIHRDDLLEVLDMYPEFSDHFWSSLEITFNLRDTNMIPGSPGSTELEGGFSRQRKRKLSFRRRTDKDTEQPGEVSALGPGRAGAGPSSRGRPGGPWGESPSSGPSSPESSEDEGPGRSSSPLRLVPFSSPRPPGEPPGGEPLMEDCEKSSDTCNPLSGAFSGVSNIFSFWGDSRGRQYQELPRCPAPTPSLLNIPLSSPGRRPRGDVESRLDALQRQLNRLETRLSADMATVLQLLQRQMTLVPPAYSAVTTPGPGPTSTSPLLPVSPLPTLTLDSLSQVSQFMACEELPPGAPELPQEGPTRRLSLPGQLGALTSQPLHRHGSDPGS
For the molecule `Cc1ccc(C(=O)NCCn2cc(SCC(=O)Nc3cc(C)on3)c3ccccc32)cc1`, the “hERG current change (%, negative = inhibition) at 1uM” value was found to be 16.9%.

For the molecule `CCn1c(C)nc2cc(C(=O)N/N=C/c3ccccc3)ccc21`, the “hERG current change (%, negative = inhibition) at 1uM” value is given as 8.41%.

For `CSc1ccccc1NC(=O)CSc1n[nH]c(C)c1[N+](=O)[O-]`, the “hERG current change (%, negative = inhibition) at 1uM” value came to 9.55%.

As to `C=CCNc1nc(-c2c(C)nc3sccn23)cs1`, the “hERG current change (%, negative = inhibition) at 1uM” value came to 10.4%.

In the case of `CCN1CN(Cc2ccccc2)CNC1=S`, the “hERG current change (%, negative = inhibition) at 1uM” value is given as 8.09%.

With `CC1CCCCC1NC(=O)c1ccc(CNc2c(N3CCCC3)c(=O)c2=O)cc1` (stereo not shown), the “hERG current change (%, negative = inhibition) at 1uM” value amounted to 9.71%.

For `COc1ccccc1-c1sc2ccccc2c1-c1ccc(Br)nc1`, the “hERG current change (%, negative = inhibition) at 1uM” value was 18.1%.

As for `CC12CCCCN1CCCc1c2[nH]c2ccccc12.Cl` (stereo not shown), the “hERG current change (%, negative = inhibition) at 1uM” value is -4.93%.

In the case of `O=C(CCCc1nc2ccccc2s1)NC(c1ccccc1)c1ccccc1`, the “hERG current change (%, negative = inhibition) at 1uM” value was 5.72%.

`Cc1ccccc1Cc1c(C)nc2c(C(=O)N3CCN(Cc4ccc5c(c4)OCO5)CC3)cnn2c1C`: the “hERG current change (%, negative = inhibition) at 1uM” value was 7.01%.

As to `N#CC(C(=O)NC1CCCCC1)=C1CCCCCC1`, the “hERG current change (%, negative = inhibition) at 1uM” value came out at 6.76%.

With `CC(C)N1C(=O)C(O)(C2COC(C)(C)CC2=O)c2ccccc21` (stereo not shown), the “hERG current change (%, negative = inhibition) at 1uM” value was 17%.

Regarding `Cc1nn(C)c(C(=O)NC(=S)Nc2ccccc2O)c1Cl`, the “hERG current change (%, negative = inhibition) at 1uM” value is -1.47%.

For `Cl.O=C(CN1CCN(C(=O)c2cccc(F)c2)CC1)NC1CCCCC1`, the “hERG current change (%, negative = inhibition) at 1uM” value is listed as 13.4%.

As for `COc1cc(NC(=O)C(C)Oc2ccccc2)ccc1NC(=O)COc1ccccc1` (stereo not shown), the “hERG current change (%, negative = inhibition) at 1uM” value is 12.9%.

On to `CCOC(=O)C1=C(COC(=O)/C=C/c2ccc(Cl)cc2)NC(=O)NC1C` (stereo not shown), for which the “hERG current change (%, negative = inhibition) at 1uM” value turned out to be 15.6%.

`CCc1nc(CNC(=O)C2CCC(=O)N(CCc3ccc(OC)cc3)C2)cs1` (stereo not shown): the “hERG current change (%, negative = inhibition) at 1uM” value stood at 10.3%.

For `Cc1ccc(NC(=O)C(=O)NCCN2CCN(C(=S)Nc3ccccc3)CC2)cc1`, the “hERG current change (%, negative = inhibition) at 1uM” value came out at 12.2%.

Regarding `CC(=O)c1cccc(NC(=O)C(NC(C)C)c2ccccc2)c1` (stereo not shown), the “hERG current change (%, negative = inhibition) at 1uM” value stood at 10%.

Turning to `N#Cc1ccc(NC(=O)CN2CCCC2)cc1Cl`, the “hERG current change (%, negative = inhibition) at 1uM” value worked out at 4.66%.

With `O/N=C1\CCSc2ccc(F)cc21`, the “hERG current change (%, negative = inhibition) at 1uM” value amounted to 11.8%.

`CCCc1nnc(SCC(=O)N2CCCCC2)n1CC1CCCO1` (stereo not shown): the “hERG current change (%, negative = inhibition) at 1uM” value was 0.669%.

Regarding `O=C(c1cc(-c2ccc(Cl)cc2)on1)N1CCOCC1`, the “hERG current change (%, negative = inhibition) at 1uM” value was determined as 5.72%.

In the case of `C/C(CC(=O)Nc1ccc2c(c1)OCCO2)=N\NC(=O)COc1ccccc1`, the “hERG current change (%, negative = inhibition) at 1uM” value is reported as 5.16%.

As for `CC(NC(=O)c1noc2c1CCCCC2)c1ccccc1` (stereo not shown), the “hERG current change (%, negative = inhibition) at 1uM” value is given as -2.41%.

As to `Cc1cccc(C)c1OCC1CNC(=O)O1` (stereo not shown), the “hERG current change (%, negative = inhibition) at 1uM” value amounted to 6.47%.

As to `COc1cc(NC(=O)CN2C(=O)C(c3ccccc3)=NC2(C)C)cc(OC)c1`, the “hERG current change (%, negative = inhibition) at 1uM” value worked out at 14.2%.

Consider `Cc1cccc(NC(=O)CNC(=O)c2ccc3c(c2)OCO3)n1`, for which the “hERG current change (%, negative = inhibition) at 1uM” value was found to be 7.53%.

Take `O=C(N/N=C/c1cccs1)c1[nH]ncc1Br`: the “hERG current change (%, negative = inhibition) at 1uM” value is reported as 15.5%.

For the molecule `Cc1ccc(-c2nnn(CC(=O)N(CC3CCCO3)C(C(=O)NCC3CCCO3)c3ccc(F)cc3)n2)o1` (stereo not shown), the “hERG current change (%, negative = inhibition) at 1uM” value was determined as 6.39%.

Regarding `Br.Nc1nc(-c2ccccc2)c(N=Nc2ccccc2Cl)s1`, the “hERG current change (%, negative = inhibition) at 1uM” value was 5.77%.

In the case of `CN(Cc1ccccc1)C(=O)CCc1ccccc1`, the “hERG current change (%, negative = inhibition) at 1uM” value is reported as 13.8%.

With `CCCSc1nsc(NC(=O)c2cccnc2OCC)n1`, the “hERG current change (%, negative = inhibition) at 1uM” value came to 10.2%.

Take `Clc1ccccc1OCc1nn2c(-c3ccncc3)nnc2s1`: the “hERG current change (%, negative = inhibition) at 1uM” value is listed as -7.59%.

In the case of `COC(=O)C1=C(c2cccc(C#N)c2)C[C@@H]2CC[C@H]1N2C(=O)NCc1cc(C)oc1C(F)(F)F`, the “hERG current change (%, negative = inhibition) at 1uM” value came to 15.5%.

In the case of `CCCc1nc2c(C)cc(C)cc2c(N)c1CC`, the “hERG current change (%, negative = inhibition) at 1uM” value was -19.7%.

`COc1ccc(CCNC(=O)c2ccco2)cc1OC`: the “hERG current change (%, negative = inhibition) at 1uM” value stood at 6.52%.

As for `COCCCNCC(O)COc1cccc2[nH]c(C)cc12` (stereo not shown), the “hERG current change (%, negative = inhibition) at 1uM” value is on record as 16.3%.

With `Cc1cc([N+](=O)[O-])cc2c1NC(=O)C2(O)N1CCOCC1` (stereo not shown), the “hERG current change (%, negative = inhibition) at 1uM” value is listed as 14%.

Consider `CCOC(=O)c1[nH]c2ccc(OC)cc2c1NC(=O)CCN1CCc2ccccc2C1`, for which the “hERG current change (%, negative = inhibition) at 1uM” value is -27.4%.

Take `CNc1cc(N2CCCC2)ccc1[N+](=O)[O-]`: the “hERG current change (%, negative = inhibition) at 1uM” value worked out at 2.03%.

For the molecule `Cl.OC(CNCC1COc2ccccc2O1)COc1ccc(Cl)cc1` (stereo not shown), the “hERG current change (%, negative = inhibition) at 1uM” value is given as -3.92%.

Consider `Cn1c(CC(=O)NC(C)(C)CO)c(Sc2ccccc2)c2ccccc21`, for which the “hERG current change (%, negative = inhibition) at 1uM” value is listed as 5.33%.

Turning to `Cc1ccc2nsnc2c1S(=O)(=O)Nc1cccc2nsnc12`, the “hERG current change (%, negative = inhibition) at 1uM” value is -0.485%.

On to `CC(C)(C)C(=O)Nc1ccc(N2CCCC2)cc1`, for which the “hERG current change (%, negative = inhibition) at 1uM” value stood at 0.159%.

Turning to `COc1ccc(Cl)cc1NC(=O)c1cc(-c2ccc(C)cc2O)n[nH]1`, the “hERG current change (%, negative = inhibition) at 1uM” value is listed as 14.9%.

The record behind these values is article PMC4336329 (PLoS ONE, 2015).
